According to PubChem BioAssay AID504845 (National Center for Advancing Translational Sciences (NCATS), 2011):
The campaign covered roughly 390,000 compounds. About 150 (0.038%) were called active. The shares of active, inactive and inconclusive entries below differ from those in the screen. Calls follow the shape of the dose curve; as a rule, active = well fitted inhibition curve with a large enough effect; inconclusive = small, poorly fitted or top-dose-only effect; inactive = no such curve, though single readings can be large or run the other way. Where the call is inconclusive, the potency comes from a doubtful curve fit.

Target: Regulator of G-protein signaling 4 (Homo sapiens) (UniProt P49798)
Sequence of UniProt P49798 (P49798 whole entry, looked up): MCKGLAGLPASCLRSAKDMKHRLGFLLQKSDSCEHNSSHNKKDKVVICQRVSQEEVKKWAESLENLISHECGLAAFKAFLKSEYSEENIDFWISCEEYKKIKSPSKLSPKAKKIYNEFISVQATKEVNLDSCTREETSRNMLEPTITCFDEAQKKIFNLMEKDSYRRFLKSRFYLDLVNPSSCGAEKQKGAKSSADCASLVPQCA
Assay: Inhibitors of Regulator of G Protein Signaling (RGS) 4: qHTS; also: nearly all actives have a fitted effect of over 75% in size
Details: Transcreener GDP fluorescence polarization, RGS4-accelerated GTP hydrolysis; series mostly up to 114 µM
How it was run: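 MLSMR compounds (23 nl, pin-transferred) preincubated 10 min at room temperature with a 500nM (2x) first reagent, then RGS4 at 900nM (2x) plus Transcreener GDP mix added; fluorescence polarization (620/688 nm) read before and after 90 min at 30 °C.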
% is scaled to controls: 0 for no effect and ±100 for the full control effect; potency is read from the fitted curve at half-maximal effect; tags tell the direction and shape of the fitted curve.

SMILES	Potency	activity change, negative = inhibition
CC/C(=N/Nc1ccccc1)c1cnnc(SC)n1	inconclusive: 79.4 µM [inhibitor, partial curve, poor fit]	–
O=C(Nc1sc2c(c1C(=O)Nc1cccc(Cl)c1)CCCC2)c1cccs1	inconclusive: 39.8 µM [inhibitor, partial curve, poor fit]	–
CN(CC(=O)N1CCCc2c1c(=O)oc1ccc(O)cc21)Cc1ccccc1	inactive	–
Cc1ccc(S(=O)(=O)NNc2nc3ccccc3nc2C(F)(F)F)cc1	inconclusive: 25.1 µM [inhibitor, full curve, poor fit]	–
Cc1cc(NC(=O)C2Oc3ccccc3OC2C)no1 (stereo not drawn)	inactive	–
CC(C)(C)c1cc(CN(CCO)CCO)cc(C(C)(C)C)c1O	inconclusive: 50.1 µM [inhibitor, partial curve, poor fit]	–
NC(=O)C[C@@H](N)C(=O)O	inconclusive: 37.7 µM [inhibitor, partial curve, poor fit]	–
CCOC(=O)c1c(NC(=O)COc2ccc(C)cc2C(C)(C)C)sc2c1CCC(C)C2 (stereo not drawn)	inactive	–
Cc1ccc2nc(/C(C#N)=C\c3ccc(N4CCOCC4)o3)[nH]c2c1	inconclusive: 44.7 µM [inhibitor, partial curve, poor fit]	–
CCOC(=O)c1c(-c2ccc(-c3ccccc3)cc2)csc1NC(=O)CNCCN(C)C	inconclusive: 50.1 µM [inhibitor, partial curve, poor fit]	–
O/C(=C\c1nc2ccccc2[nH]1)c1cccs1	inconclusive: 50.1 µM [inhibitor, partial curve, poor fit]	–
CCOC(=O)c1ccc(NC(=O)CC2Nc3ccccc3NC2=O)cc1 (stereo not drawn)	inactive	–
CCCCCOC(=O)Cc1c(O)c2ccccc2[nH]c1=O	inactive	–
COc1ccc(C(=O)NC(=S)NC(C)(C)C)cc1Br	inconclusive: 79.4 µM [inhibitor, partial curve, poor fit]	–
COCCN1C(=O)CS/C1=C(/C#N)C(=O)NCc1ccco1	inconclusive: 17.8 µM [inhibitor, full curve, poor fit]	–
CCC(=O)Nc1cccc(C(=O)/C=C/c2cccs2)c1	inactive	–
O=C(O)/C=C/c1cn(Cc2ccccc2Cl)nc1-c1ccccc1	–	inactive: 8.67% [at 11.4 µM]
N#Cc1c(-c2ccccc2Cl)cc(-c2ccccc2)nc1Br	inactive	–
Nc1nnc(SC2CCCC2)s1	inconclusive: 50.1 µM [inhibitor, partial curve, poor fit]	–
CCOc1cc(-c2ccc(OC(=O)c3ccc(OC)cc3)c(OC)c2)cc(=O)c2c(C)oc(C)c12	inconclusive: 17.8 µM [inhibitor, full curve, poor fit]	–
COc1ccc(CN2CCC(CO)(Cc3ccccc3C(F)(F)F)CC2)c(F)c1	inactive	–
O=C1Nc2cc(Cl)ccc2Nc2cscc21	inconclusive: 44.7 µM [inhibitor, partial curve, poor fit]	–
CCCCN(CC)CCNC(=O)C1CCCN(c2ncnc3onc(C)c23)C1 (stereo not drawn)	inactive	–

SMILES	Potency	activity change, negative = inhibition
CCOP(=O)(OCC)C(C#N)=C1SCN(c2ccc(Cl)cc2)CS1	inconclusive: 56.2 µM [inhibitor, partial curve, poor fit]	–
CCOc1ccc(/C=N/NC(=O)c2ccc(Cn3cc([N+](=O)[O-])cn3)o2)cc1	inconclusive: 35.5 µM [inhibitor, full curve, poor fit]	–
N#Cc1c(N)sc2c1CCN(CCc1ccccc1)C2	inactive	–
N#CC1=C(S)N=C(N)C(c2nc(-c3ccccc3)cs2)C12CCCC2 (stereo not drawn)	inconclusive: 112 µM [inhibitor, partial curve, poor fit]	–
CC(=O)c1ccc(-n2c(-c3cc(-c4ccsc4)n[nH]3)n[nH]c2=S)cc1	inconclusive: 100 µM [inhibitor, single point]	–
O=C(CN1N=C(c2ccccc2)CCC1=O)NCCCN1CCc2ccccc2C1	inconclusive: 89.1 µM [inhibitor, single point]	–
CCOC(=O)c1c(NC(=O)c2cc3nc(-c4ccc(Br)cc4)cc(C(F)(F)F)n3n2)sc(C(C)=O)c1C	inconclusive: 39.8 µM [inhibitor, partial curve, poor fit]	–
COc1ccccc1C(=O)N(CCC1CCCN1C)c1nc2ccccc2s1 (stereo not drawn)	inactive	–
O=C1CSC(=S)N1N=Cc1ccccc1O	inconclusive: 31.6 µM [inhibitor, partial curve, poor fit]	–
CCOCc1[nH]c(=S)[nH]c(=O)c1Cc1ccc(OC(C)C)cc1	inconclusive: 17.8 µM [inhibitor, full curve, poor fit]	–
O[Si](CCCN1CCCCC1)(c1ccc(F)cc1)C1CCCCC1 (stereo not drawn)	inactive	–
COc1ccc(C2NC(=O)N(C)C3=C2C(=O)N(c2cccc(C(=O)O)c2)C3)cc1 (stereo not drawn)	inactive	–
O=C(c1ccc(Cl)c(S(=O)(=O)N2CCCCC2)c1)N1CCCCC1	inconclusive: 112 µM [inhibitor, partial curve, poor fit]	–
COc1ccc(CCNC(=O)Nc2ccccc2[N+](=O)[O-])cc1	inconclusive: 31.6 µM [inhibitor, full curve, poor fit]	–
COc1ccc(NC(=O)c2sc(=S)[nH]c2N)cc1	inconclusive: 50.1 µM [inhibitor, partial curve, poor fit]	–
COc1cc2c3nnc(-c4ccc(F)cc4)c-3cn(Cc3ccccc3)c2cc1OC	inconclusive: 79.4 µM [inhibitor, partial curve, poor fit]	–
Cc1ccc(C(=O)NC2CCc3ccccc3C2=O)cc1 (stereo not drawn)	inconclusive: 89.1 µM [inhibitor, single point]	–
Cc1cccc(NC(=O)CC2CCC2)c1	inactive	–
CCOc1ccccc1NC(=O)Nc1cccc(S(N)(=O)=O)c1	inactive	–
Fc1ccc(NC(=S)Nc2ccc3nccnc3c2)cc1	inconclusive: 100 µM [inhibitor, partial curve, poor fit]	–
O=C(Nc1ccc(Cl)c([N+](=O)[O-])c1)c1ccncc1	inconclusive: 100 µM [inhibitor, single point]	–
Cc1cc(NC(=O)NC2CCCN2S(=O)(=O)c2ccc(Cl)cc2)no1 (stereo not drawn)	inconclusive: 89.1 µM [inhibitor, single point]	–
C=CCn1c(O)c(N=Nc2ccccc2C)c2ccccc21	inconclusive: 56.2 µM [inhibitor, partial curve, poor fit]	–

SMILES	Potency	activity change, negative = inhibition
O=S(=O)(Nc1ccc(Cc2ccncc2)cc1)c1ccc(Cl)c(Cl)c1	inactive	–
C/C=C\C=C\C(=O)Nc1cccc(C2=NOC3(C2)C[C@@H](C(N)=O)N(C(=O)C(c2ccccc2)c2ccccc2)C3)c1 (stereo partly drawn)	inconclusive: 50.1 µM [inhibitor, partial curve, poor fit]	–
COC(=O)[C@@H]1C[C@@]2(O)[C@H](O)[C@H](O)[C@H](O)C[C@H]2N1Cc1cc(OC)cc(OC)c1	inactive	–
Nc1ccc(N2CCCCC2)cc1N1CCCCC1	inconclusive: 70.8 µM [inhibitor, partial curve, poor fit]	–
Fc1ccc(-c2csc(=S)[nH]2)cc1	inconclusive: 100 µM [inhibitor, single point]	–
C/[N+]([O-])=C\C1C(=O)CCCC1=O	inconclusive: 89.1 µM [inhibitor, partial curve, poor fit]	–
COc1ccc(-c2cn3cc(C)ccc3n2)cc1F	inconclusive: 31.6 µM [inhibitor, full curve, poor fit]	–
C=CCNc1ncnc2c1cnn2-c1ccc(Cl)cc1	inconclusive: 17.8 µM [inhibitor, full curve, poor fit]	–
CCOC(=O)[C@@H]1[C@H]2COc3ccccc3[C@H]2N2C(=O)N(c3ccc(C)cc3)C(=O)[C@]12C	inconclusive: 79.4 µM [inhibitor, single point]	–
Cc1cc(C2C(C#N)=C(N)SC(N)=C2C#N)c(C)s1	inconclusive: 10 µM [inhibitor, full curve, poor fit]	–
Cc1nc2c(C)cccc2cc1C(=O)N/N=C/c1ccc(C(=O)O)cc1	inconclusive: 35.5 µM [inhibitor, full curve, poor fit]	–
O=C(c1cc2sccc2n1Cc1ccc(F)cc1)N1CCCc2ccccc21	inconclusive: 56.2 µM [inhibitor, partial curve, poor fit]	–
CC(C)Oc1ccc(C(=O)N(Cc2ccc(N(C)C)cc2)Cc2ccco2)cc1	inactive	–
NC(CSC(c1ccccc1)(c1ccccc1)c1ccccc1)C(=O)O (stereo not drawn)	inactive	–
CC[C@]12c3[nH]c4cc(-c5ccco5)ccc4c3CCN1C(=O)[C@@H](CC(=O)NCc1ccco1)C[C@@H]2C(=O)N1CCN(C(=O)c2ccco2)CC1	inconclusive: 89.1 µM [inhibitor, single point]	–
S=C(Nc1cc(Cl)cc(Cl)c1)N1CCN(c2ccccn2)CC1	inactive	–
Cc1ccc(S(=O)(=O)Nc2cc(Cl)c3oc4c(c3c2)CCCC4)cc1	inactive	–
COCCOC(=O)c1c(C)oc2ccc(OCC=C(C)C)cc12	inactive	–
O=c1nc2ccccc2c2n1CC(CN1CCN(Cc3ccccc3)CC1)N2 (stereo not drawn)	inactive	–
C/C(=N\NC(=O)CN(c1ccccc1Br)S(C)(=O)=O)c1cccs1	inconclusive: 44.7 µM [inhibitor, partial curve, poor fit]	–
COc1ccccc1C=C1SC(=S)NC1=O	inconclusive: 79.4 µM [inhibitor, partial curve, poor fit]	–
CC(Sc1nnnn1C1CCCCC1)C(=O)O (stereo not drawn)	inconclusive: 44.7 µM [inhibitor, partial curve, poor fit]	–
